Data from ChEMBL document CHEMBL1201862, “PubChem BioAssay data set” (2004).

These compounds were tested on NCI-H322M (assay: growth of human tumour cells (NCI), 48 h).

Q: `CCCCNS(=O)(=O)c1n[nH]c(=O)[nH]c1=O` was tested. Which GI50 did it give?
A: inactive: > 100 µM

Q: Which GI50 does the source give for `CC(C)OP(=O)(OC(C)C)/C(=N/Nc1ccc([N+](=O)[O-])cc1)NCCO` here?
A: inactive: > 100 µM

Q: How did the GI50 turn out when `O=C1/C(=C/c2ccc(Cl)cc2)N=C(c2ccccc2)N1c1nc2c(Cl)cc(Cl)cc2s1` was run?
A: inactive: 31.5 µM

Q: How did the GI50 turn out when `COc1cc(/C=C2/SC(c3ccccc3)N(c3ccccc3)C2=O)cc(OC)c1OC` (configuration not stated) was run?
A: inactive: > 100 µM

Q: With `C=C(Br)CNC(=O)Nc1ccc(Cl)c(Cl)c1` as the compound, how does the GI50 read?
A: inactive: 24.4 µM

Q: `CN(CCN(C)C(=O)CCn1ccc(=O)[nH]c1=O)C(=O)CCn1ccc(=O)[nH]c1=O` was tested. Which GI50 did it give?
A: inactive: > 100 µM

Q: How did the GI50 turn out when `CCOC(=O)c1cc(=O)c2ccnc3c2n1CCS3` was run?
A: inactive: > 100 µM

Q: `O=c1c(-c2ccccc2)c(SCCCN2CCCCC2)n(-c2ccccc2)c(=S)n1-c1ccccc1` was tested. Which GI50 did it give?
A: inactive: > 100 µM

Q: For `COC(=O)C1=CC2C=CC(C1C(=O)OC)C1C(C(=O)OC)=C(C(=O)OC)C(C(=O)OC)=C(C(=O)OC)C21OC` (configuration not stated), which GI50 is on record?
A: inactive: > 100 µM

Q: `CCCCCCCCCCCCCC(=O)OCC(C[As](=O)(O)O)OC(=O)CCCCCCCCCCCCC` (configuration not stated) was tested. Which GI50 did it give?
A: inactive: > 100 µM

Q: How did the GI50 turn out when `CSCCC(NC(=O)OC(C)(C)C)C(=O)NCCNc1ccc(NCCNC(=O)C(CCSC)NC(=O)OC(C)(C)C)c2c1C(=O)c1ccccc1C2=O` (configuration not stated) was run?
A: inactive: 13.7 µM

Q: With `CCN(CC)/C(=C\Cl)Nc1ccccn1.[O-][Cl+3]([O-])([O-])O` as the compound, how does the GI50 read?
A: inactive: > 100 µM

Q: How did the GI50 turn out when `S=c1[nH]nc(Cn2c3ccc(Br)cc3c3nc4ccccc4nc32)n1C1CCCCC1` was run?
A: inactive: 34.3 µM

Q: `Cc1ccccc1Nc1nc2c(s1)C(=O)c1ccccc1C2=O` was tested. Which GI50 did it give?
A: inactive: 15 µM

Q: Which GI50 does the source give for `COc1cc(NC(C)c2ccc3c(c2)OCCO3)cc(OC)c1OC` (configuration not stated) here?
A: inactive: 53 µM

Q: How did the GI50 turn out when `CCc1cc(C)cc2[n+]1CC=C2C.[O-][Cl+3]([O-])([O-])[O-]` was run?
A: inactive: > 100 µM

Q: How did the GI50 turn out when `C=CCCc1cc(OC)ccc1CN(C)C(C)(C)CO` was run?
A: inactive: > 100 µM

Q: For `CC1(C)COC(c2c(-c3ccccc3)noc2C[S+]([O-])c2ccccc2)=N1` (configuration not stated), which GI50 is on record?
A: inactive: 42.7 µM

Q: Which GI50 does the source give for `C[Si](C)(C)OC1(C#N)c2ccccc2CCCC12CCCC2` (configuration not stated) here?
A: inactive: > 100 µM

Q: For `O=C1OC(c2ccco2)=N/C1=C\c1ccc(Cl)c(Cl)c1`, which GI50 is on record?
A: inactive: > 100 µM

Q: How did the GI50 turn out when `COC(=O)[C@]12CC[C@H]3CN(C(=O)OCc4ccccc4)[C@H]([C@H]31)[C@H](C(=O)OCC[Si](C)(C)C)N2S(=O)(=O)c1ccc(C)cc1` was run?
A: inactive: > 100 µM

Q: Which GI50 does the source give for `NC1=NCC(CN2CCCCC2)O1` (configuration not stated) here?
A: inactive: > 100 µM

Q: `CC1C(/C=C/c2ccoc2)ON2CCCC12` (configuration not stated) was tested. Which GI50 did it give?
A: inactive: > 100 µM

Q: How did the GI50 turn out when `COC1CC(=O)C2C(=O)N(c3ccccc3)C(=O)C23C(C(=O)c2ccccc2)=C(C)NC13O` (configuration not stated) was run?
A: inactive: 26.6 µM

Q: With `C[n+]1c2ccccc2c(NC(CS)C(=O)O)c2ccccc21` (configuration not stated) as the compound, how does the GI50 read?
A: inactive: 48.1 µM

Q: How did the GI50 turn out when `Cc1cccc(NC(=O)/C(=N\N)C(c2cnc3ccc([N+](=O)[O-])cc3n2)[N+](=O)[O-])c1C` (configuration not stated) was run?
A: inactive: > 100 µM

Q: `Cc1ccc(NC(Nc2ccc(C)cc2C)=C(C(Cl)=C(Cl)Cl)[N+](=O)[O-])c(C)c1` was tested. Which GI50 did it give?
A: inactive: 18.5 µM

Q: `CNC(=O)OCC1C2=C(C(=O)C(C)=C(N)C2=O)N2CC3C(N3C)C12OC` (configuration not stated) was tested. Which GI50 did it give?
A: inactive: 14.8 µM

Q: `CN(C)CCCNc1ccc2ncn3c4ccc(O)cc4c(=O)c1c23` was tested. Which GI50 did it give?
A: inactive: 1.97 µM

Q: For `COC(=O)C(/C(=N/NC(N)=S)C(=O)Nc1ccccc1[N+](=O)[O-])c1cnc2ccccc2n1` (configuration not stated), which GI50 is on record?
A: inactive: > 100 µM

Q: Which GI50 does the source give for `COc1cc(S(=O)(=O)Nc2ccc(-c3csc(N4C(=O)C(C)SC4c4ccccc4O)n3)cc2)ccc1Cl` (configuration not stated) here?
A: inactive: > 100 µM

Q: How did the GI50 turn out when `CC(C)(C)[Si](C)(C)OC1CCOC1(O)c1ccccn1` (configuration not stated) was run?
A: inactive: > 100 µM

Q: With `CC12C3C4C1C1C2C3C41CO` (configuration not stated) as the compound, how does the GI50 read?
A: inactive: > 100 µM

Q: For `COc1ccc(-c2c(C#N)c(N)n(C3OCC(O)C(O)C3O)c(=S)c2C#N)cc1` (configuration not stated), which GI50 is on record?
A: inactive: > 100 µM

Q: Which GI50 does the source give for `CCOC(=O)C(=O)Nc1cccc(C)c1C` here?
A: inactive: > 100 µM

Q: With `COC(=O)c1c2c(cc3c1CC1(Cc4cc5c(c(C)c4C1)CCC5)C3)CCC2` (configuration not stated) as the compound, how does the GI50 read?
A: inactive: > 100 µM

Q: How did the GI50 turn out when `C[N+]1(C)CCCC(C#N)(c2ccccc2)CC1` (configuration not stated) was run?
A: inactive: > 100 µM

Q: With `O=C1C=C(Sc2ccccc2)c2nccc3c2c1nc1ccccc13` as the compound, how does the GI50 read?
A: inactive: 28.1 µM

Q: `C1#Cc2ccccc2OCCOc2ccccc2C#Cc2ccccc2OCCOc2ccccc21` was tested. Which GI50 did it give?
A: inactive: 28.8 µM

Q: How did the GI50 turn out when `COc1ccc2[nH]c3c(C)c4ccnc(NCCCN(C)CCCNc5ccc6nnn7c8ccccc8c(=O)c5c67)c4c(C)c3c2c1` was run?
A: active: 0.516 µM

Q: With `O=C1c2ccccc2C2C1C(c1ccccc1)C1(Cc3ccccc3C1=O)C2c1ccccc1` (configuration not stated) as the compound, how does the GI50 read?
A: inactive: > 100 µM

Q: For `CC(=O)N(CCN1C(=O)c2ccccc2C1=O)CCN1C(=O)c2ccccc2C1=O`, which GI50 is on record?
A: inactive: > 100 µM

Q: How did the GI50 turn out when `CC(C)[C@@H]1ON1C(C)c1ccccc1` (some centres not stated) was run?
A: inactive: > 100 µM

Q: How did the GI50 turn out when `COC1=CC(C2c3cc4c(cc3[C@@H](Nc3ccc([N+](=O)[O-])cc3)C3COC(=O)[C@H]23)OCO4)=CC(=O)C1=O` (some centres not stated) was run?
A: inactive: 23.6 µM

Q: How did the GI50 turn out when `Cc1cc(OCc2nc(N)nc(N)c2-c2ccc(Cl)c(Cl)c2)ccc1[N+](=O)[O-]` was run?
A: active: 0.425 µM

Q: With `COc1ccc(/N=C2\C(=O)Nc3ccc(Br)cc32)cc1` as the compound, how does the GI50 read?
A: inactive: 19.8 µM

Q: How did the GI50 turn out when `COC(=O)/C(=C/c1ccc(OC)cc1)c1cc(OC)c(OC)c(OC)c1` was run?
A: inactive: 4.03 µM

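Where inhibition never reached the appropriate level, the endpoint shown equals the highest concentration tested. Otherwise, values were interpolated linearly from a five-concentration, 48-hour dose response in 96-well plates. GI50 = concentration required for 50% inhibition of growth.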 Activity calls are given as the source filed them. Rule as the data show it: active = GI50 up to about 1.1 µM and inactive = higher.
